# In the antibiotic and cytotoxicity screens of Wong et al. (2023):
# The list shows a part of the results.
# System: HSkMC (human skeletal muscle cells)
# Experiment: cytotoxicity call (relative viability < 0.9)
# Settings: 10 µM
row,Compound,cytotoxicity call
1,C[C@@H]1CCCCO[C@H](CN(C)C(=O)Nc2ccc(C(F)(F)F)cc2)[C@H](C)CN([C@@H](C)CO)C(=O)c2cc(NS(=O)(=O)c3ccccc3)ccc2O1,inactive
2,CC(C)NC(=O)Nc1ccc2c(c1)C(=O)N([C@@H](C)CO)C[C@@H](C)[C@@H](CN(C)S(C)(=O)=O)OCCCC[C@@H](C)O2,inactive
3,CC(C)CC#Cc1ccc2c(c1)O[C@@H](CN(C)CC1CCOCC1)[C@H](C)CN([C@H](C)CO)S2(=O)=O,inactive
4,O=C(C[C@H]1C[C@@H]2c3cc(NS(=O)(=O)c4ccc(F)cc4)ccc3O[C@@H]2[C@@H](CO)O1)NC1CCCCC1,inactive
5,c1ccc(-c2ccc([C@H](c3ccccc3)n3ccnc3)cc2)cc1,inactive
6,CC(C)(C)OC(=O)C[C@H]1CC=CC[C@H](CC(=O)NCCO)C(=O)N[C@H](Cc2ccccc2)COC1=O,inactive
7,CCS(=O)(=O)N(C)C[C@H]1OCc2ccccc2-c2c(n(C)c3ccccc23)C(=O)N([C@H](C)CO)C[C@H]1C,inactive
8,C[C@@H]1CCCCO[C@@H](CN(C)S(=O)(=O)c2ccc(F)cc2)[C@@H](C)CN([C@H](C)CO)C(=O)c2cc(NC(=O)Nc3ccc(F)cc3)ccc2O1,inactive
9,O=C(C[C@H]1CC[C@H]2[C@@H](COC[C@@H](O)CN2S(=O)(=O)c2ccccc2F)O1)NCc1ccccc1F,inactive
10,C[C@@H]1CN([C@H](C)CO)C(=O)Cc2cc(NC(=O)CCN3CCOCC3)ccc2O[C@H]1CN(C)S(=O)(=O)c1ccc(F)cc1,inactive
11,C[C@@H]1CN([C@H](C)CO)C(=O)Cc2cc(NC(=O)Cn3cnnn3)ccc2O[C@@H]1CN(C)S(=O)(=O)c1ccc(Cl)cc1,inactive
12,C[C@H](CO)N1C[C@H](C)[C@@H](CN(C)S(C)(=O)=O)Oc2ccc(NC(=O)Nc3ccc4c(c3)OCO4)cc2C1=O,inactive
13,C=CC1=C(C)C(=Cc2[nH]c(Cc3[nH]c(C=C4NC(=O)C(C)=C4C=C)c(C)c3CCC(=O)O)c(CCC(=O)O)c2C)NC1=O,inactive
14,C[C@H](CO)N1C[C@H](C)[C@H](CN(C)C(=O)Nc2cccc3ccccc23)Oc2ncc(-c3ccc(F)cc3)cc2C1=O,inactive
15,C[C@H](CO)N1C[C@H](C)[C@H](CN(C)Cc2cncnc2)Oc2cc(C#CC3CCCC3)ccc2S1(=O)=O,inactive
16,COc1ccc(-c2cnc3c(c2)C(=O)N([C@@H](C)CO)C[C@@H](C)[C@H](CN(C)C(=O)C2CCOCC2)O3)cc1,inactive
17,C[C@@H]1CN([C@H](C)CO)C(=O)c2cc(NC(=O)Cc3ccccc3)ccc2O[C@@H](C)CCCCO[C@@H]1CN(C)S(=O)(=O)c1cccs1,inactive
18,C[C@@H]1CCCCO[C@@H](CN(C)C(=O)CCC(F)(F)F)[C@@H](C)CN([C@H](C)CO)C(=O)c2cc(NC(=O)c3ccccc3)ccc2O1,inactive
19,COc1ccc(COCC23Oc4ccccc4[C@H]([C@H]2COC(=O)c2ccccc2)n2c(c4ccccc4c(-c4ccccc4)c2=O)N3C)cc1,inactive
20,CCOCCOCCOc1oc(C(=O)NC2CCCCC2)c(-c2ccc(Cl)cc2)c1S(=O)(=O)c1ccc(Cl)cc1,inactive
21,C[C@@H]1CCCCO[C@H](CN(C)Cc2ccc(Cl)c(Cl)c2)[C@@H](C)CN([C@H](C)CO)C(=O)c2cc(NS(=O)(=O)c3cn(C)cn3)ccc2O1,inactive
22,C[C@@H]1ON(c2ccc(C(=O)OC(C)(C)C)cc2)[C@H](c2ccc(Br)cc2)[C@H]1C(=O)N1C(=O)OC[C@H]1Cc1ccccc1,inactive
23,C[C@H](CO)N1C[C@H](C)[C@H](CN(C)Cc2ccccc2)Oc2ccc(NC(=O)CCCCCC(=O)Nc3ccccc3N)cc2CC1=O,inactive
24,O=C(O)CCC(=O)N[C@H]1CCCCNC1=O,inactive
25,Cc1noc(C)c1S(=O)(=O)Nc1ccc2c(c1)C(=O)N([C@@H](C)CO)C[C@@H](C)[C@H](CN(C)C)OCCCC[C@@H](C)O2,inactive
26,C[C@@H]1O[C@@H](O[C@@H]2[C@@H](O)[C@H](C)O[C@@H](OC[C@H]3O[C@@H](Oc4c(-c5ccc(O)cc5)oc5cc(O)cc(O)c5c4=O)[C@H](O)[C@@H](O)[C@H]3O)[C@@H]2O)[C@H](O)[C@H](O)[C@H]1O,inactive
27,CO[C@H]1CN(C)C(=O)c2cc(NC(=O)Nc3ccc(Cl)cc3)ccc2OC[C@H](C)N(C(=O)Nc2c(C)noc2C)C[C@H]1C,inactive
28,C[C@H]1CN([C@@H](C)CO)C(=O)c2c(c3ccccc3n2C)-c2ccccc2CO[C@@H]1CN(C)Cc1ccc(F)cc1,inactive
